Measurements reported in the supplement of paper PMC8728848.
Some of the results follow.

Assays:
Assay in all cases: glycan array binding signal (z-score within array); higher = stronger binding
Settings in all cases: glycan notation: IUPAC condensed, linker removed
[1] = target: Fuc(a1-3)[GalNAc(b1-4)]GlcNAc
Outline: (§1)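 Arrays were curated from the Consortium for Functional Glycomics database, 3228 in total, and kept only where the protein sequence was available. Binding is expressed as a within-array Z-score. This score was averaged across arrays of the same protein sequence at different concentrations or buffers and across linkers, and negative values can be read as non-binding.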

Fuc(a1-4)GlcNAc = target: Fuc(a1-4)GlcNAc
Outline: as §1

Fuc(b1-3)GlcNAc = target: Fuc(b1-3)GlcNAc
Outline: as §1

Gal(a1-2)Gal = target: Gal(a1-2)Gal
Outline: as §1

Gal(a1-3)Gal = target: Gal(a1-3)Gal
Outline: as §1

Gal(a1-3)Gal(b1-3)GlcNAc = target: Gal(a1-3)Gal(b1-3)GlcNAc
Outline: as §1

Gal(a1-3)Gal(b1-4)Glc = target: Gal(a1-3)Gal(b1-4)Glc
Outline: as §1

Gal(a1-3)Gal(b1-4)GlcNAc = target: Gal(a1-3)Gal(b1-4)GlcNAc
Outline: as §1

[2] = target: Gal(a1-3)Gal(b1-4)[Fuc(a1-3)]GlcNAc
Outline: as §1

Gal(a1-3)GalNAc = target: Gal(a1-3)GalNAc
Outline: as §1

[3] = target: Gal(a1-3)[Gal(a1-4)]Gal(b1-4)GlcNAc
Outline: as §1

Gal(a1-4)Gal(b1-4)Glc = target: Gal(a1-4)Gal(b1-4)Glc
Outline: as §1

Gal(a1-4)Gal(b1-4)GlcNAc = target: Gal(a1-4)Gal(b1-4)GlcNAc
Outline: as §1

Gal(a1-4)GlcNAc = target: Gal(a1-4)GlcNAc
Outline: as §1

Gal(a1-6)Glc = target: Gal(a1-6)Glc
Outline: as §1

Gal(b1-2)Gal = target: Gal(b1-2)Gal
Outline: as §1

Gal(b1-3)Gal = target: Gal(b1-3)Gal
Outline: as §1

Gal(b1-3)Gal(b1-4)GlcNAc = target: Gal(b1-3)Gal(b1-4)GlcNAc
Outline: as §1

Gal(b1-3)GalNAc = target: Gal(b1-3)GalNAc
Outline: as §1

[4] = target: Gal(b1-3)GalNAc(b1-3)Gal(a1-4)Gal(b1-4)Glc
Outline: as §1

[5] = target: Gal(b1-3)GalNAc(b1-4)Gal(b1-4)Glc
Outline: as §1

[6] = target: Gal(b1-3)GalNAc(b1-4)[Neu5Ac(a2-3)]Gal(b1-4)Glc
Outline: as §1

Gal(b1-3)GlcNAc = target: Gal(b1-3)GlcNAc
Outline: as §1

[7] = target: Gal(b1-3)GlcNAc(b1-2)Man(a1-3)[Gal(b1-3)GlcNAc(b1-2)Man(a1-6)]Man(b1-4)GlcNAc(b1-4)GlcNAc
Outline: as §1

[8] = target: Gal(b1-3)GlcNAc(b1-3)Gal(b1-3)GlcNAc
Outline: as §1

[9] = target: Gal(b1-3)GlcNAc(b1-3)Gal(b1-4)Glc
Outline: as §1

[10] = target: Gal(b1-3)GlcNAc(b1-3)Gal(b1-4)GlcNAc
Outline: as §1

[11] = target: Gal(b1-3)[Fuc(a1-4)]GlcNAc
Outline: as §1

[12] = target: Gal(b1-3)[Fuc(a1-4)]GlcNAc(b1-3)Gal(b1-3)[Fuc(a1-4)]GlcNAc
Outline: as §1

[13] = target: Gal(b1-3)[Fuc(a1-4)]GlcNAc(b1-3)Gal(b1-4)GlcNAc
Outline: as §1

[14] = target: Gal(b1-3)[Fuc(a1-4)]GlcNAc(b1-3)Gal(b1-4)[Fuc(a1-3)]GlcNAc
Outline: as §1

[15] = target: Gal(b1-3)[GlcNAc(b1-6)]GalNAc
Outline: as §1

[16] = target: Gal(b1-3)[Neu5Ac(a2-6)]GalNAc
Outline: as §1

[17] = target: Gal(b1-3)[Neu5Ac(a2-6)]GlcNAc(b1-6)Gal(b1-4)Glc
Outline: as §1

[18] = target: Gal(b1-3)[Neu5Ac(b2-6)]GalNAc
Outline: as §1

[19] = target: Gal(b1-4)GalNAc(a1-3)[Fuc(a1-2)]Gal(b1-4)GlcNAc
Outline: as §1

[20] = target: Gal(b1-4)GalNAc(b1-3)[Fuc(a1-2)]Gal(b1-4)GlcNAc
Outline: as §1

Gal(b1-4)Glc = target: Gal(b1-4)Glc
Outline: as §1

Gal(b1-4)Glc6S = target: Gal(b1-4)Glc6S
Outline: as §1

Gal(b1-4)GlcNAc = target: Gal(b1-4)GlcNAc
Outline: as §1

[21] = target: Gal(b1-4)GlcNAc(a1-6)Gal(b1-4)GlcNAc
Outline: as §1

[22] = target: Gal(b1-4)GlcNAc(b1-2)Man(a1-3)[Gal(b1-4)GlcNAc(b1-2)Man(a1-6)]Man(b1-4)GlcNAc(b1-4)GlcNAc
Outline: as §1

[23] = target: Gal(b1-4)GlcNAc(b1-3)Gal(b1-3)GlcNAc
Outline: as §1

[24] = target: Gal(b1-4)GlcNAc(b1-3)Gal(b1-4)Glc
Outline: as §1

[25] = target: Gal(b1-4)GlcNAc(b1-3)Gal(b1-4)GlcNAc
Outline: as §1

B1: Angptl4 (Homo sapiens), Q9BY76 (protein)
chain: MSGAPTAGAALMLCAATAVLLSAQGGPVQSKSPRFASWDEMNVLAHGLLQLGQGLREHAERTRSQLSALERRLSACGSACQGTEGSTDLPLAPESRVDPEVLHSLQTQLKAQNSRIQQLFHKVAQQQRHLEKQHLRIQHLQSQFGLLDHKHLDHEVAKPARRKRLPEMAQPVDPAHNVSRLHRLPRDCQELFQVGERQSGLFEIQPQGSPPFLVNCKMTSDGGWTVIQRRHDGSVDFNRPWEAYKAGFGDPHGEFWLGLEKVHSITGDRNSRLAVQLRDWDGNAELLQFSVHLGGEDTAYSLQLTAPVAGQLGATTVPPSGLSVPFSTWDQDHDLRRDKNCAKSLSGGWWFGTCSHSNLNGQYFRSIPQQRQKLKKGIFWKTWRGRYYPLQATTMLIQPMAAEAAS
glycan array binding signal (z-score) [1]: -0.127
glycan array binding signal (z-score) (Fuc(a1-4)GlcNAc): 2.27
glycan array binding signal (z-score) (Fuc(b1-3)GlcNAc): -0.413
glycan array binding signal (z-score) (Gal(a1-2)Gal): 0.359
glycan array binding signal (z-score) (Gal(a1-3)Gal): -0.247
glycan array binding signal (z-score) (Gal(a1-3)Gal(b1-3)GlcNAc): -0.164
glycan array binding signal (z-score) (Gal(a1-3)Gal(b1-4)Glc): -0.187
glycan array binding signal (z-score) (Gal(a1-3)Gal(b1-4)GlcNAc): -0.076
glycan array binding signal (z-score) [2]: -0.522
glycan array binding signal (z-score) (Gal(a1-3)GalNAc): 0.668
glycan array binding signal (z-score) [3]: -0.072
glycan array binding signal (z-score) (Gal(a1-4)Gal(b1-4)Glc): 0.89
glycan array binding signal (z-score) (Gal(a1-4)Gal(b1-4)GlcNAc): -0.437
glycan array binding signal (z-score) (Gal(a1-4)GlcNAc): -0.052
glycan array binding signal (z-score) (Gal(a1-6)Glc): 0.889
glycan array binding signal (z-score) (Gal(b1-2)Gal): -0.226
glycan array binding signal (z-score) (Gal(b1-3)Gal): 0.531
glycan array binding signal (z-score) (Gal(b1-3)Gal(b1-4)GlcNAc): -0.343
glycan array binding signal (z-score) (Gal(b1-3)GalNAc): -0.105
glycan array binding signal (z-score) [4]: -0.406
glycan array binding signal (z-score) [5]: -0.477
glycan array binding signal (z-score) [6]: -0.174
glycan array binding signal (z-score) (Gal(b1-3)GlcNAc): -0.049
glycan array binding signal (z-score) [7]: 1.19
glycan array binding signal (z-score) [8]: -0.33
glycan array binding signal (z-score) [9]: -0.463
glycan array binding signal (z-score) [10]: -0.235
glycan array binding signal (z-score) [11]: -0.48
glycan array binding signal (z-score) [12]: 0.865
glycan array binding signal (z-score) [13]: -0.58
glycan array binding signal (z-score) [14]: -0.192
glycan array binding signal (z-score) [15]: -0.215
glycan array binding signal (z-score) [16]: -0.354
glycan array binding signal (z-score) [17]: -0.082
glycan array binding signal (z-score) [18]: -0.018
glycan array binding signal (z-score) [19]: -0.132
glycan array binding signal (z-score) [20]: -0.427
glycan array binding signal (z-score) (Gal(b1-4)Glc): 0.289
glycan array binding signal (z-score) (Gal(b1-4)Glc6S): 0.109
glycan array binding signal (z-score) (Gal(b1-4)GlcNAc): 0.015
glycan array binding signal (z-score) [21]: 0.52
glycan array binding signal (z-score) [22]: -0.387
glycan array binding signal (z-score) [23]: 0.921
glycan array binding signal (z-score) [24]: -0.407
glycan array binding signal (z-score) [25]: -0.339
